40 sequences from article PMC12820563 can be followed below.

This is one part of the list. The list includes weakly bound sequences.

The target in the assay is T1, MBP-FoxP3dN (UniProt Q99JB6).
T1 sequence: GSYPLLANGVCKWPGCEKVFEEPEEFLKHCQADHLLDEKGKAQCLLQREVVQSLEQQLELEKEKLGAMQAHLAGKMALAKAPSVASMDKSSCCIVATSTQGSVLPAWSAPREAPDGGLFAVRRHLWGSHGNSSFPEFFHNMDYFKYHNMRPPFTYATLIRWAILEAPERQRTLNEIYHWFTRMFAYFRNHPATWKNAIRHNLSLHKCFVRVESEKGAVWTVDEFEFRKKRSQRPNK
Nature of the assay: PD-seq (MBP pull-down with sequencing). Conditions: 20 mM Tris-HCl pH 7.5, 100 mM NaCl, 1.5 mM MgCl2, 0.4 uM protein, 0.1 uM dsDNA library, 30 min, room temperature, amylose pull-down; high values mean tight binding; double strand, one strand shown.
Consider “GATGATTGTTCTCCCAGCTGATGAATTATTATTCTCGAGTAAACAAATTTTCCTAATCTTTCTGTTCAAGCGCCATCTAC”, for which the binding signal (RPM ratio (pull-down/input)) was found to be 1.6. As for “GATGATTGTTCTCCCAGCTGATGAATTCAGACTGTCGAGTAAACAAATTTTCCTAATCTTTCTGTTCAAGCGCCATCTAC”, the figure is 0.548.

With “GATGATTGTTCTCCCAGCTGATGAATTGCATAGGTCGAGTAAACAAATTTTCCTAATCTTTCTGTTCAAGCGCCATCTAC”, the binding signal (RPM ratio (pull-down/input)) stood at 0.683. As for “GATGATTGTTCTCCCAGCTGATGAATTTATGTCTTCGAGTAAACAAATTTTCCTAATCTTTCTGTTCAAGCGCCATCTAC”, the figure is 2.54; as for “GATGATTGTTCTCCCAGCTGATGAATTTATAGGGTCGAGTAAACAAATTTTCCTAATCTTTCTGTTCAAGCGCCATCTAC”, 0.952; as for “GATGATTGTTCTCCCAGCTGATGAATTTGAAAAATCGAGTAAACAAATTTTCCTAATCTTTCTGTTCAAGCGCCATCTAC”, 0.178. As for “GATGATTGTTCTCCCAGCTGATGAATTTACGTAGTCGAGTAAACAAATTTTCCTAATCTTTCTGTTCAAGCGCCATCTAC”, the figure is 0.51; as for “GATGATTGTTCTCCCAGCTGATGAATTGTTCGTATCGAGTAAACAAATTTTCCTAATCTTTCTGTTCAAGCGCCATCTAC”, 0.679; as for “GATGATTGTTCTCCCAGCTGATGAATTCTATCGTTCGAGTAAACAAATTTTCCTAATCTTTCTGTTCAAGCGCCATCTAC”, 1.07. With “GATGATTGTTCTCCCAGCTGATGAATTAACAGGCTCGAGTAAACAAATTTTCCTAATCTTTCTGTTCAAGCGCCATCTAC” the figure was 0.315; with “GATGATTGTTCTCCCAGCTGATGAATTTGATTAATCGAGTAAACAAATTTTCCTAATCTTTCTGTTCAAGCGCCATCTAC”, 0.828. Consider “GATGATTGTTCTCCCAGCTGATGAATTTGAGAAATCGAGTAAACAAATTTTCCTAATCTTTCTGTTCAAGCGCCATCTAC”, for which the binding signal (RPM ratio (pull-down/input)) amounted to 0.306. As for “GATGATTGTTCTCCCAGCTGATGAATTGTGAGTATCGAGTAAACAAATTTTCCTAATCTTTCTGTTCAAGCGCCATCTAC”, the figure is 2.08; as for “GATGATTGTTCTCCCAGCTGATGAATTTCCCAGGTCGAGTAAACAAATTTTCCTAATCTTTCTGTTCAAGCGCCATCTAC”, 0.172; as for “GATGATTGTTCTCCCAGCTGATGAATTAAAACAGTCGAGTAAACAAATTTTCCTAATCTTTCTGTTCAAGCGCCATCTAC”, 0.563. Take “GATGATTGTTCTCCCAGCTGATGAATTAGAGTGATCGAGTAAACAAATTTTCCTAATCTTTCTGTTCAAGCGCCATCTAC”: the binding signal (RPM ratio (pull-down/input)) worked out at 0.455. With “GATGATTGTTCTCCCAGCTGATGAATTAAGACTGTCGAGTAAACAAATTTTCCTAATCTTTCTGTTCAAGCGCCATCTAC” the figure was 0.614; with “GATGATTGTTCTCCCAGCTGATGAATTACTGTCTTCGAGTAAACAAATTTTCCTAATCTTTCTGTTCAAGCGCCATCTAC”, 0.508; with “GATGATTGTTCTCCCAGCTGATGAATTCCTGGACTCGAGTAAACAAATTTTCCTAATCTTTCTGTTCAAGCGCCATCTAC”, 0.198.

For “GATGATTGTTCTCCCAGCTGATGAATTCTATATCTCGAGTAAACAAATTTTCCTAATCTTTCTGTTCAAGCGCCATCTAC”, the binding signal (RPM ratio (pull-down/input)) is 0.709. With “GATGATTGTTCTCCCAGCTGATGAATTAGGAACATCGAGTAAACAAATTTTCCTAATCTTTCTGTTCAAGCGCCATCTAC” the figure was 0.452; with “GATGATTGTTCTCCCAGCTGATGAATTATTTGAGTCGAGTAAACAAATTTTCCTAATCTTTCTGTTCAAGCGCCATCTAC”, 0.442. As for “GATGATTGTTCTCCCAGCTGATGAATTCCACCGCTCGAGTAAACAAATTTTCCTAATCTTTCTGTTCAAGCGCCATCTAC”, the figure is 0.254. In the case of “GATGATTGTTCTCCCAGCTGATGAATTTACATTGTCGAGTAAACAAATTTTCCTAATCTTTCTGTTCAAGCGCCATCTAC”, the binding signal (RPM ratio (pull-down/input)) stood at 0.765. As for “GATGATTGTTCTCCCAGCTGATGAATTTACGATGTCGAGTAAACAAATTTTCCTAATCTTTCTGTTCAAGCGCCATCTAC”, the figure is 0.7.

For the sequence “GATGATTGTTCTCCCAGCTGATGAATTGGTCATATCGAGTAAACAAATTTTCCTAATCTTTCTGTTCAAGCGCCATCTAC”, the binding signal (RPM ratio (pull-down/input)) was found to be 0.575. As for “GATGATTGTTCTCCCAGCTGATGAATTGCGGACTTCGAGTAAACAAATTTTCCTAATCTTTCTGTTCAAGCGCCATCTAC”, the figure is 0.827. With “GATGATTGTTCTCCCAGCTGATGAATTGACTTAATCGAGTAAACAAATTTTCCTAATCTTTCTGTTCAAGCGCCATCTAC” the figure was 0.244; with “GATGATTGTTCTCCCAGCTGATGAATTTCGTGAATCGAGTAAACAAATTTTCCTAATCTTTCTGTTCAAGCGCCATCTAC”, 0.281.

Regarding “GATGATTGTTCTCCCAGCTGATGAATTCGCAGTATCGAGTAAACAAATTTTCCTAATCTTTCTGTTCAAGCGCCATCTAC”, the binding signal (RPM ratio (pull-down/input)) came out at 0.739. As for “GATGATTGTTCTCCCAGCTGATGAATTTGTACACTCGAGTAAACAAATTTTCCTAATCTTTCTGTTCAAGCGCCATCTAC”, the figure is 2.75; as for “GATGATTGTTCTCCCAGCTGATGAATTGGATCTCTCGAGTAAACAAATTTTCCTAATCTTTCTGTTCAAGCGCCATCTAC”, 0.289.

Take “GATGATTGTTCTCCCAGCTGATGAATTGGGTGTGTCGAGTAAACAAATTTTCCTAATCTTTCTGTTCAAGCGCCATCTAC”: the binding signal (RPM ratio (pull-down/input)) was found to be 1.27. As for “GATGATTGTTCTCCCAGCTGATGAATTTGGCTTATCGAGTAAACAAATTTTCCTAATCTTTCTGTTCAAGCGCCATCTAC”, the figure is 1.72. On to “GATGATTGTTCTCCCAGCTGATGAATTTAGTATCTCGAGTAAACAAATTTTCCTAATCTTTCTGTTCAAGCGCCATCTAC”, for which the binding signal (RPM ratio (pull-down/input)) was 3.87. As for “GATGATTGTTCTCCCAGCTGATGAATTAGAGCGCTCGAGTAAACAAATTTTCCTAATCTTTCTGTTCAAGCGCCATCTAC”, the figure is 0.296; as for “GATGATTGTTCTCCCAGCTGATGAATTTGGCATATCGAGTAAACAAATTTTCCTAATCTTTCTGTTCAAGCGCCATCTAC”, 2.56. With “GATGATTGTTCTCCCAGCTGATGAATTAACTATCTCGAGTAAACAAATTTTCCTAATCTTTCTGTTCAAGCGCCATCTAC” the figure was 0.332. With “GATGATTGTTCTCCCAGCTGATGAATTCGTAGCGTCGAGTAAACAAATTTTCCTAATCTTTCTGTTCAAGCGCCATCTAC” the figure was 0.988. Take “GATGATTGTTCTCCCAGCTGATGAATTTATTGTCTCGAGTAAACAAATTTTCCTAATCTTTCTGTTCAAGCGCCATCTAC”: the binding signal (RPM ratio (pull-down/input)) is 6.72.
